From PubChem BioAssay AID1345082 (National Center for Advancing Translational Sciences (NCATS), 2018)
Out of some 94,000 compounds screened, about 4,000 (4.3%) were called active. Inconclusive means that the source gave no clear call. Such entries were picked first, then a sample of the others. The call rests on the fitted dose curve; in most records, active means well fitted inhibition curve with a large enough effect; inconclusive means small, poorly fitted or top-dose-only effect; inactive means no such curve, though single readings can be large or run the other way. A potency beside an inconclusive call is a rough fit, not a confirmed value.
On the % scale 0 is the no-effect control and ±100 the full control effect; potency means the concentration at half of the fitted maximal effect; tags describe the fitted curve by direction and shape.

Test: Cytotoxic Profiling in NIH 3T3 Cell Line of Diverse Libraries Using Quantitative High-Throughput Screening; further: nearly all actives have a fitted effect of over 55% in size
Conditions: NIH 3T3 viability, CellTiter-Glo ATP luminescence, 48-72 h; activity change, negative = cytotoxicity: at 96.7 µM (top of the series) unless noted; series mostly up to 96.7 µM
Method in brief: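 Mouse fibroblast NIH 3T3 cells, 400 per well, received compound via pintool and were incubated for 48 or 72 hr prior to CellTiter-Glo ATP luminescence measurement.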
In the case of `COc1ccc(CN(C)CC2CCN(CCc3ccc(F)cc3)CC2)cc1Cn1cccn1`, the Potency was active: 39.8 µM.
For `CCc1cccc(C)c1NC(=O)CN1C(=O)NC(c2ccc(Cl)cc2)C2=C1COC2=O` (centres undefined), the Potency was inconclusive: 50.1 µM [inhibitor, partial curve, poor fit].
For `COc1ccc(-c2c(C(=O)NCc3cccs3)nc3sccn23)cc1`, the “activity change, negative = cytotoxicity” value was inactive: -37.2%.
With `O=C1CCC2(C(=O)NCc3ccc4c(c3)OCO4)CCC=C2N1C1CCCC1` (centres undefined) the “activity change, negative = cytotoxicity” value was inactive: -28.3%.
In the case of `COc1ccccc1Oc1c(CCC(=O)NCc2ccco2)c(C)nn1-c1ccc(F)cc1`, the Potency was inconclusive: 50.1 µM [inhibitor, partial curve, poor fit].
In the case of `C[S+](=O)([O-])N1CCCC(C(=O)N2CCCC2c2nc3ccncc3[nH]2)C1` (centres undefined), the “activity change, negative = cytotoxicity” value was inactive: -18.5%.
In the case of `Cc1cc(C)cc(C(=O)NC2CCCN(c3cc(-c4ccc(F)cc4)[nH]n3)C2)c1` (centres undefined), the Potency was inconclusive: 44.7 µM [inhibitor, partial curve, poor fit].
For `COc1cccc(-c2cccc(C(=O)N3CCCC3C(=O)NC3CC3)c2)c1` (centres undefined), the “activity change, negative = cytotoxicity” value was inactive: -15.1% [at 138 µM].
With `COCC(=O)NC1CCN(Cc2ccc(-c3cc(F)ccc3OC)cc2)C1` (centres undefined) the Potency was inconclusive: 39.8 µM [inhibitor, partial curve].
For `Cc1noc(C)c1-c1ccc2c(n1)CN(Cc1ccc(F)cc1)C(=O)CO2`, the Potency was inconclusive: 79.4 µM [inhibitor, partial curve, poor fit].
For `COc1ccc(C(=O)N2CCOC(CCCC(C)C)C2)cc1OC` (centres undefined), the Potency was inconclusive: 89.1 µM [inhibitor, single point].
For `COc1ccccc1-c1cnc(NCc2ccccc2)c2c1CCO2`, the Potency was active: 25.1 µM.
For `CN(C(=O)Nc1ccc(Cl)cc1)C1CCc2ccccc21` (centres undefined), the “activity change, negative = cytotoxicity” value was inactive: -28.2% [at 138 µM].
In the case of `C[S+](=O)([O-])N1CCC2(C1)N=C(c1ccccn1)C(=O)N2` (centres undefined), the “activity change, negative = cytotoxicity” value was inactive: 3.04% [at 138 µM].
In the case of `O=C(NCCn1ccn2nc(-c3ccc(F)cc3)cc2c1=O)c1cc(Cl)ccc1F`, the “activity change, negative = cytotoxicity” value was inactive: -18.3%.
In the case of `COC(=O)c1cccc(NC(=S)N[C@@H]2C=C[C@@H](c3c(C)nn(-c4ccc(F)cc4)c3C)C2)c1`, the Potency was inconclusive: 12.6 µM [inhibitor, full curve, poor fit].
For `O=C1COc2ccccc2CCNC(=O)[C@H](Cc2ccc(OCCOCc3ccccc3)cc2)N1`, the Potency was inconclusive: 35.5 µM [inhibitor, partial curve, poor fit].
For `Cn1nc(-c2nncn2CC2CC2)c2c1CCN(C(=O)c1ccncc1)C2`, the “activity change, negative = cytotoxicity” value was inactive: -2.6%.
For `O=C1NCCCCCCN(S(=O)(=O)c2ccc3c(c2)CCC3)[C@H]2CCC[C@@H]12`, the Potency was inconclusive: 50.1 µM [inhibitor, partial curve, poor fit].
For `O=C1OCCCN1CCNC(=O)[C@@]12CNC[C@@H]1CN(Cc1ccccc1)C2`, the “activity change, negative = cytotoxicity” value was inactive: -11.1%.
With `COc1cc(CCC(=O)N2C[C@@H](C(N)=O)[C@H](c3nc(C)no3)C2)on1` the Potency was inconclusive: 79.4 µM [inhibitor, single point].
With `COc1c(F)cccc1CN1CCOc2cc([S+](=O)([O-])N(C)C)ccc2C1` the Potency was inconclusive: 50.1 µM [inhibitor, full curve, poor fit].
In the case of `COc1cccc(CN2CCC(Oc3ccccc3-c3nc(-c4ccncc4)no3)C2)c1` (centres undefined), the Potency was active: 25.1 µM.
In the case of `Cc1ccccc1C(=O)N1C(C(=O)NC2CC2)COC12CCN(C(=O)c1cccc(Cl)c1)CC2` (centres undefined), the Potency was inconclusive: 50.1 µM [inhibitor, partial curve, poor fit].
In the case of `N#Cc1cccc(C(=O)N2CCC(n3cc(-c4nc(-c5ccccc5)no4)nn3)C2)c1` (centres undefined), the Potency was inconclusive: 50.1 µM [inhibitor, partial curve, poor fit].
For `O=C(CCc1ccccc1)N1CCC(CCOc2ccccc2F)C1` (centres undefined), the Potency was inconclusive: 44.7 µM [inhibitor, partial curve, poor fit].
In the case of `CC(C)c1noc([C@@H]2C[C@H]3C(=O)NCCCCCCN(C(=O)CC4CCCCC4)[C@H]3C2)n1`, the Potency was inconclusive: 50.1 µM [inhibitor, partial curve, poor fit].
With `O=C(NCC12CCC=C1N(CC1CC1)C(=O)CC2)C1CCOCC1` (centres undefined) the “activity change, negative = cytotoxicity” value was inactive: -8.74%.
In the case of `Cc1nc2cnccn2c1C(=O)NCc1ccc(C(F)(F)F)cc1`, the Potency was inconclusive: 44.7 µM [inhibitor, partial curve, poor fit].
For `O=C(c1cc(-c2cc(Cl)cc(Cl)c2)c2cccn2n1)N1CCN(c2ncccn2)CC1`, the Potency was inconclusive: 70.8 µM [inhibitor, single point].
In the case of `CCc1cccc(NC(=O)N2CCc3nc4cc(-c5ccc(OC)cc5)[nH]n4c(=O)c3C2)c1`, the Potency was inconclusive: 70.8 µM [inhibitor, single point].
For `CC(C)C[C@@H]1N[C@H](C(=O)NC2CCCC2)Cc2cn(Cc3nccn3C)c3cccc1c23`, the Potency was active: 89.1 µM.
With `O=C1NC2(CCN(Cc3ccccc3)CC2)Oc2ccccc21` the Potency was inconclusive: 56.2 µM [inhibitor, partial curve, poor fit].
For `CN(Cc1ccc(-c2ccccc2)cc1)C(=O)Cc1ccccn1`, the Potency was inconclusive: 44.7 µM [inhibitor, partial curve, poor fit].
For `CCN1c2cc(C(=O)Nc3ccc(OC)c(OC)c3)ccc2C(=O)N2CCCCC21` (centres undefined), the Potency was inconclusive: 10 µM [inhibitor, full curve, poor fit].
For `COc1cccc(C(=O)Nc2cccc(-c3nnc4n3CCCC4)c2)c1OC`, the Potency was inconclusive: 50.1 µM [inhibitor, partial curve, poor fit].
In the case of `O=C(NC[C@H]1CCc2ccccc2O1)c1cccc(-n2cnnc2)c1`, the “activity change, negative = cytotoxicity” value was inactive: -18.7%.
With `O=C(Cc1cccc(F)c1)N1CCC(n2cc(-c3nc(-c4ccccc4)no3)nn2)CC1` the “outcome” value was “inactive”.
For `Cc1cccc(OC[C@H]2C[C@@H](N(C)C)[C@H](O)[C@@H]2O)n1`, the “activity change, negative = cytotoxicity” value was inactive: 1.39% [at 138 µM].
For `Cc1nn(-c2ccccc2)c(Oc2ccccc2)c1CCC(=O)NCC1CCCO1` (centres undefined), the Potency was inconclusive: 50.1 µM [inhibitor, partial curve, poor fit].
For `COc1cccc(-c2cc(C(=O)N(C)c3ccccc3)c3cnn(C)c3n2)c1`, the Potency was inconclusive: 12.6 µM [inhibitor, partial curve, poor fit].
For `Cc1cccc(-c2noc([C@@H]3Cc4nc[nH]c4CN3C(=O)c3ccc(-c4ccccc4)cc3)n2)c1`, the Potency was active: 20 µM.
In the case of `Cc1nn(C)cc1C(=O)N1CCC2(CC1)CC(c1ccccc1)C(=O)N2` (centres undefined), the “activity change, negative = cytotoxicity” value was inactive: -1.25%.
For `c1ccc(CCCN2CC[C@H](c3nnc(-c4ccccc4)o3)C2)cc1`, the Potency was inconclusive: 126 µM [inhibitor, single point].
In the case of `COCCN1C(=O)[C@@H]2C[C@@H](CN2Cc2ccc(C(F)(F)F)cc2)Oc2ccccc21`, the Potency was inconclusive: 112 µM [inhibitor, single point].
With `O=C(C1CCCCC1)N1CCC2(CC1)NC(=O)N(c1cccc(F)c1)N2` the Potency was inconclusive: 22.4 µM [inhibitor, partial curve].
With `CCn1cc(CN(C)C(=O)c2oc3c(C)c(C)ccc3c2C)cn1` the Potency was inconclusive: 56.2 µM [inhibitor, partial curve, poor fit].
In the case of `Cc1ncsc1CN1CCCCCCNC(=O)CC1c1ccccc1` (centres undefined), the Potency was inconclusive: 44.7 µM [inhibitor, partial curve, poor fit].
For `c1c(-c2nc(C3CCOC3)no2)sc2c1CCCC2` (centres undefined), the Potency was inconclusive: 35.5 µM [inhibitor, full curve, poor fit].
With `Cc1nn(-c2ccccc2)c2c1C(C1CC1)N(C1CCN(Cc3ccc(F)cc3)CC1)C2=O` (centres undefined) the “activity change, negative = cytotoxicity” value was inactive: -11.3%.
For `Cn1cc(CN2C[C@H](C(=O)NCc3ccccc3)C[C@H]2c2cccc(C(F)(F)F)c2)cn1`, the Potency was inconclusive: 50.1 µM [inhibitor, partial curve, poor fit].
For `CC(CCc1ccccc1)NC(=O)C1CN(C2CCCC2)C(=O)N1` (centres undefined), the “activity change, negative = cytotoxicity” value was inactive: -20.1% [at 138 µM].
For `COc1ccccc1C(=O)N1CCC(C(=O)N2CCC(c3nc4ncccc4[nH]3)CC2)C1` (centres undefined), the “activity change, negative = cytotoxicity” value was inactive: -5.21%.
With `C[S+](=O)([O-])c1ccc(-c2ccc3ncn(-c4ccc(F)cc4F)c(=O)c3n2)cc1` the Potency was inconclusive: 44.7 µM [inhibitor, partial curve, poor fit].
For `COc1cncc(-c2cccc(COc3ccc4c(cnn4CC[S+](C)(=O)[O-])c3)c2)c1`, the Potency was active: 56.2 µM.
In the case of `CC1Oc2ccc(NC(=O)c3c(F)cccc3F)cc2CN(C2CCCc3ccccc32)C1=O` (centres undefined), the Potency was inconclusive: 50.1 µM [inhibitor, partial curve, poor fit].
For `COc1ccc(-c2noc(CN(CC3CCC(=O)N3)C(C)C)n2)c(OC)c1OC` (centres undefined), the “activity change, negative = cytotoxicity” value was inactive: 2.54%.
With `Cc1noc(C)c1-c1cc2c(cc(C)n2CCN(C)C)c(Nc2ccn(C)n2)n1` the Potency was inconclusive: 50.1 µM [inhibitor, partial curve, poor fit].
For `CN(C)[C@@H]1CN(C(=O)CN2CCCCCC2)CC[C@@H]1CO`, the Potency was inconclusive: 79.4 µM [inhibitor, partial curve, poor fit].
In the case of `COCc1cc(C[C@H]2CNCC[C@H]2CC(=O)NCc2ccc(OC)c(OC)c2)no1`, the Potency was inconclusive: 126 µM [inhibitor, single point].
For `Cc1ccccc1Cn1cc(-c2ccncc2)cc1C(=O)Nc1ccc2c(c1)OCO2`, the Potency was inconclusive: 28.2 µM [inhibitor, full curve, poor fit].
In the case of `CN1C(=O)[C@@H]2C[C@@H](CN2C(=O)CCC(=O)O)Oc2ccccc21`, the “activity change, negative = cytotoxicity” value was inactive: -18% [at 174 µM].
With `Cc1ccccc1C(=O)N1CCC2(CC1)CCN(CCc1ccccc1)c1ccccc1O2` the Potency was inconclusive: 17.8 µM [inhibitor, full curve, poor fit].
In the case of `Cc1ccc(-c2cccc(CN3CCCC(NC(=O)C4CC4)C3)c2)cc1Cl` (centres undefined), the Potency was inconclusive: 44.7 µM [inhibitor, partial curve, poor fit].
